Reference: the supplement of paper PMC10126150
Values marked as one replicate rest on one cluster of the flow cell; about a third of the high ones do not repeat.

Each sequence was assayed on ATP (assay: switch fluorescence ratio, 500 uM ATP over buffer (Cy3 cluster intensity, sum of 5 cycles each) (fold (ratio)); higher = stronger signal-on switching upon ATP binding; sequences stand for … in TCGTCGGCAGCGTCAGATGTGTATAAGAGACAGTTTTTTTTTTTTTTTTTTTTTTTTT…TC). Details: aptamer strand: ATP DNA aptamer (quencher-CACCTGGGGGAGTATTGCGGAGGAAGG + anchor), 100 nM annealed; ATP concentration: 500 uM; one replicate.
Summary of the method: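 Imaging in selection buffer was followed by imaging after 15 min with 500 uM ATP at 22 °C, for Cy3-labelled switching-strand clusters annealed to 100 nM quencher-labelled ATP aptamer on a modified Illumina MiSeq flow-cell. Five of these buffer/ATP cycles ran, separated by NaOH stripping and re-annealing. The fluorescence ratio per cluster is summed target-cycle over summed buffer-cycle Cy3 intensity, averaged per switch-domain sequence; clusters outside 100-1000 RFU were removed.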
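Further: ATP exposure 15 min at 22 °C before imaging.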

| Sequence | switch fluorescence ratio |
| --- | --- |
| CTGGTAGTCT | 1.04 |
| CTGGTATTG | 0.995 |
| CTGGTCGGTC | 0.972 |
| CTGGTGAGAA | 1.02 |
| CTGGTGCTTT | 1.02 |
| CTGGTGGATC | 0.969 |
| CTGGTGGGGA | 0.994 |
| CTGGTGTCGG | 0.972 |
| CTGGTTACG | 0.959 |
| CTGGTTAGTA | 0.972 |
| CTGGTTGCGC | 1.05 |
| CTGGTTTTAA | 1.05 |
| CTGTAAAGGT | 0.991 |
| CTGTAAATGT | 1.04 |
| CTGTACAACT | 1.03 |
| CTGTACATAC | 2.92 |
| CTGTAGTAGT | 1.29 |
| CTGTATAGTG | 0.959 |
| CTGTATCTCG | 1 |
| CTGTATGGTT | 0.987 |
| CTGTCAGGCG | 0.981 |
| CTGTCAGTA | 1.02 |
| CTGTCCACAA | 1.98 |
| CTGTCGCA | 1.41 |
| CTGTCGCACT | 1.36 |

| Sequence | switch fluorescence ratio |
| --- | --- |
| CTGTGACGC | 1.03 |
| CTGTGATGTA | 0.994 |
| CTGTGATGTC | 1.03 |
| CTGTGCAGGT | 1.04 |
| CTGTGCCCT | 1.01 |
| CTGTGCGAAA | 1.02 |
| CTGTGCTTTG | 1.05 |
| CTGTGGCGGG | 0.946 |
| CTGTGGCGGT | 1 |
| CTGTGGTATA | 1 |
| CTGTGTACGT | 1 |
| CTGTGTCACG | 0.956 |
| CTGTGTTTAG | 0.974 |
| CTGTTAAACC | 1.04 |
| CTGTTAGCTA | 1.24 |
| CTGTTCCTAT | 1 |
| CTGTTGCTTT | 0.991 |
| CTGTTGGCG | 0.943 |
| CTGTTGGGTA | 0.986 |
| CTGTTTTAGG | 1.01 |
| CTTAAAAGAA | 0.988 |
| CTTAAAATA | 1.01 |
| CTTAAATGGA | 1 |
| CTTAACGAAA | 1.01 |
| CTTAAGAAGC | 1.02 |

| Sequence | switch fluorescence ratio |
| --- | --- |
| CTTAAGGAGA | 1.04 |
| CTTAAGGGA | 1.04 |
| CTTAAGGGGT | 0.95 |
| CTTAAGTGGA | 1.01 |
| CTTAATCCCG | 1.01 |
| CTTAATGTAG | 0.973 |
| CTTAATTTCA | 1 |
| CTTACAACGA | 1.02 |
| CTTACACCTG | 1.07 |
| CTTACCCCAT | 1.1 |
| CTTACGGACG | 1.31 |
| CTTACGTAGT | 1.04 |
| CTTACTCTTC | 0.969 |
| CTTAGCACGT | 1.01 |
| CTTAGGGGAA | 1 |
| CTTAGTACG | 1.01 |
| CTTAGTATTC | 0.973 |
| CTTAGTCGCA | 1.01 |
| CTTAGTCTCG | 1.03 |
| CTTAGTTGAG | 0.971 |
| CTTAGTTGCA | 0.985 |
| CTTAGTTTGA | 0.996 |
| CTTATAAGGA | 1.01 |
| CTTATAAGTT | 0.978 |
| CTTATACCGC | 1.12 |

| Sequence | switch fluorescence ratio |
| --- | --- |
| CTTATCGCTT | 0.961 |
| CTTATGGATA | 1.05 |
| CTTATGTACG | 1 |
| CTTATTACAG | 0.979 |
| CTTATTTCTC | 0.96 |
| CTTCAAACGG | 1.05 |
| CTTCAACCGC | 1.2 |
| CTTCACTTGT | 1.01 |
| CTTCAGAACG | 1.09 |
| CTTCAGGCAG | 1 |
| CTTCAGGGA | 1.02 |
| CTTCCATATG | 0.965 |
| CTTCCCAGAG | 1.39 |
| CTTCCGGCC | 2.09 |
| CTTCGGATGG | 0.983 |
| CTTCGTGTAA | 1.12 |
| CTTCGTTCGC | 3.84 |
| CTTCTAGGGT | 0.992 |
| CTTCTGGGGG | 1.01 |
| CTTCTGTTAA | 1.03 |
| CTTCTTCAGA | 1.04 |
| CTTCTTTGCC | 1 |
| CTTGAAGAGT | 0.954 |
| CTTGAATGTT | 1.03 |
| CTTGACAGTT | 0.969 |

| Sequence | switch fluorescence ratio |
| --- | --- |
| CTTGAGGGTG | 1.13 |
| CTTGAGGTGG | 1.03 |
| CTTGATTGTG | 0.992 |
| CTTGATTTAA | 1 |
| CTTGCAAAGT | 1.04 |
| CTTGCCACGG | 0.993 |
| CTTGCCGGAG | 0.999 |
| CTTGCGTGGA | 1.02 |
| CTTGCTAGCT | 1.02 |
| CTTGCTTGG | 0.956 |
| CTTGGACTGT | 1.01 |
| CTTGGGCGGC | 0.984 |
| CTTGGGTGCT | 1 |
| CTTGGTAGTC | 0.974 |
| CTTGGTGGAT | 0.993 |
| CTTGTAAGCT | 0.998 |
| CTTGTAATAT | 1.04 |
| CTTGTAATGG | 1.1 |
| CTTGTAGTTA | 1.04 |
| CTTGTATAAC | 1.02 |
| CTTGTCTCAG | 0.986 |
| CTTGTGCGCA | 0.989 |
| CTTGTTACAT | 0.94 |
| CTTGTTTTCG | 0.963 |
| CTTTAAGGAG | 1.01 |

| Sequence | switch fluorescence ratio |
| --- | --- |
| CTTTAATGTG | 0.99 |
| CTTTAGGGAG | 1.01 |
| CTTTAGTAAA | 1.02 |
| CTTTATAGAT | 0.971 |
| CTTTCCGCCC | 1.13 |
| CTTTCCTCAC | 1.92 |
| CTTTCGAGGT | 1.02 |
| CTTTCGCTGC | 2.97 |
| CTTTCGGGGT | 0.952 |
| CTTTCGGTGG | 0.972 |
| CTTTCTACGG | 1.26 |
| CTTTGAGCCG | 0.981 |
| CTTTGCAGCA | 1.22 |
| CTTTGCATG | 1.03 |
| CTTTGCATGC | 2.28 |
| CTTTGCGTGG | 1.05 |
| CTTTGGAAGA | 0.958 |
| CTTTGGACGA | 1.01 |
| CTTTGGTCGG | 0.956 |
| CTTTGTTCGG | 1.01 |
| CTTTGTTGAG | 1 |
| CTTTTAAGTT | 0.973 |
| CTTTTACTTG | 1.02 |
| CTTTTAGATA | 1.04 |
| CTTTTAGGCA | 1 |

| Sequence | switch fluorescence ratio |
| --- | --- |
| CTTTTATCTT | 0.975 |
| CTTTTCACTA | 0.982 |
| CTTTTCATCC | 0.998 |
| CTTTTGAGTA | 0.988 |
| CTTTTGCCAG | 1.06 |
| CTTTTGCGAC | 1.12 |
| CTTTTGGA | 0.989 |
| CTTTTGGAAA | 1.02 |
| CTTTTGTTCG | 0.97 |
| CTTTTTGCCT | 1.02 |
| CTTTTTTAGC | 0.968 |
| GAAAAAGGT | 0.98 |
| GAAAACAGAT | 0.992 |
| GAAAACGAAA | 1.01 |
| GAAAACGTCT | 0.992 |
| GAAAAGACCC | 1 |
| GAAAAGCCTG | 1.01 |
| GAAAAGGCAT | 0.992 |
| GAAAAGTTGT | 1.03 |
| GAAAATCGGC | 1 |
| GAAACAGGGC | 1.01 |
| GAAACCAGAC | 2.93 |
| GAAACCGAGC | 1.22 |
| GAAACGGTCA | 1 |
| GAAACTAAAC | 1.07 |

| Sequence | switch fluorescence ratio |
| --- | --- |
| GAAACTCGCT | 0.996 |
| GAAACTGCGT | 0.978 |
| GAAAGAAAAG | 0.96 |
| GAAAGAAGCC | 0.973 |
| GAAAGATGTT | 1 |
| GAAAGCGCCG | 0.999 |
| GAAAGCTTGC | 1.27 |
| GAAAGGCAGG | 1.03 |
| GAAAGGGAGG | 0.997 |
| GAAAGGGGG | 0.998 |
| GAAAGTGAGG | 1.02 |
| GAAAGTTGTG | 1.03 |
| GAAATAATTT | 1.01 |
| GAAATACACC | 1.2 |
| GAAATAGGGG | 0.97 |
| GAAATGATAG | 1.01 |
| GAAATTACAT | 1.03 |
| GAAATTAGTA | 0.964 |
| GAAATTGAAA | 1.08 |
| GAAATTGACT | 1.02 |
| GAAATTTGAC | 0.956 |
| GAACAGCCAG | 1.02 |
| GAACATTAAT | 0.967 |
| GAACCACTGT | 1.01 |
| GAACCCACGC | 1.43 |
